The supplement of paper PMC11417369
Some of the results follow.

Tested on: PfHDP1 homeodomain (GST-tagged)
Assay: gcPBM binding intensity (ln(normalized median fluorescence intensity)); higher = stronger DNA binding
Outline: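 In this array assay, P. falciparum DNA-binding domains with a GST tag, expressed in E. coli, were applied for 1 h to primer-extended double-stranded 36-bp intergenic genomic probes and negative controls on an Agilent 4 × 180k array. Bound protein was visualised with Alexa488 anti-GST antibody at 488 nm. Binding intensity is the highest Masliner-normalised natural-log median intensity across replicate spots of either probe orientation.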

Sequence	gcPBM binding intensity (ln)
AATATACAAAATATCACACATATAAAATAATATATA [CACACA_site6067]	6.18
AAATAATATGTAATCAAATTCACCAAACGAAAAAAA [TGCATGCA_negctrl_site33]	6.59
AATGGTTCAACGTAGTGTACGTAATAAATAATAAAT [XGTACX_site8668]	6.5
TGATAATTTCATTTTGCATGTGACAATACAAGATGT [TGCATGCA_site203]	6.28
ATTATATGTAACACGTGTACCTATTTATGTATGCTT [XGTACX_site5748]	6.68
TTTGTTTTATCTTATATGCACACGATAAAAAAAAAA [CACACA_site2673]	9.69
ATCCAAAAAATTAATGCATGCGCAAAAAATAGCTTA [TGCATGCA_site615]	6.37
TGTCCTTATTTGCACACACACATATAAGAAATTTAA [CACACA_site7485]	10.5
AAAAAAAAAACATACACACACATATATATATATATG [CACACA_site1586]	6.95
ACAAAAAAATAAGGTGCACACAAAAAAAAAAAAAAA [CACACA_site8171]	9.22
ATATAGCATATAATTTGTACACAGGCCATACCTGAA [XGTACX_site533]	6.39
GAGTTCAGTTTTTGTTGTACTTATTCTTAATATGTC [XGTACX_site6083]	6.22
TATATGGCATATTTCACACACACATAATGAATATTA [CACACA_site9181]	6.59
TTTTTTTTTTTTTGATGTACTTATTTAATAAGATAT [XGTACX_site376]	6.38
AGATGATATACGTAAACACACAAATAAAAAAAATTT [CACACA_site3327]	6.49
GAAAAAAAAGAAAAAACACACATATGATATATTTAT [CACACA_site1524]	6.01
ATATTTTCTTTTTAAAGTACATATTTGATTACAATA [XGTACX_site8414]	6.2
TCTTAGATTATTTATTGTACTTATGCTTAAAAAATT [XGTACX_site3639]	6.17
TAGTTATTTATATACACACACATACAGACAAATAAA [CACACA_site7577]	7.11
GTCCAATAAGGAAGAGTGCAAAAATTAAATAATATA [GTGCAC_site9751]	8.67
AAAGAAAAAAAAAACACACACACACGCATTCAATAT [CACACA_site6169]	6.81
ATATATATTTATATATATATATATATATATATGTAT [GTGCAC_negctrl_site220]	7.92

Sequence	gcPBM binding intensity (ln)
CATGTAATATTAAACACACACTCATATAACACAATA [CACACA_site65]	6.86
TCTATATATAAATATAAATATATATATATAATGTTA [TGCATGCA_negctrl_site92]	5.95
ATAGAATAATATTGTAGTACTAAAAATATTCATTTT [XGTACX_site6447]	6.09
TAAAAAACAAAACAGGTGCTATATAATTTTCATTTT	6.36
TCTTTTTGTTCGTGTACACACATGAAATTTATAAAA [CACACA_site1619]	7.13
AAGTATATACATATATGTACACATTGTCAGATAGAA [XGTACX_site1236]	6.49
ATTATAAATTAAAATACACACATATATACATAATAT [CACACA_site7337]	6.61
TTGTTTCTTAAATTATTTATTTTATATTAAAAAAAA [XGTACX_negctrl_site224]	6.56
ATTCGTAGTTTTATGAATTAATATAATAAAAATTAA [XGTACX_negctrl_site181]	5.99
TCGTAGTTACTATGGCAAGAAAATAAACGGTCTTGT [GTGCAC_negctrl_site684]	6.6
AAGAAAATGAAAAAGTAAAAACATATATTAAATATA [TGCATGCA_negctrl_site123]	6.45
ATATATATATATATATGTACATATTTTTAATTATAA [XGTACX_site7444]	9.45
AAACATGATTATTATAGTACAATTATAATTATTATA [XGTACX_site2590]	6.14
GTCATAAAAACATATACACACTTGAAATATAAAAAT [CACACA_site5315]	6.63
CAAAGGGAAATTAACACACACATATATATATATATA [CACACA_site2453]	9.42
GTATACACATATATATGTACTTAATTATTTTATGTC [XGTACX_site6707]	7.1
TTTCTTTTCTCAGAAATTATTCAAATGAAAAAAAAT [TGCATGCA_negctrl_site44]	6.07
TAATAATATATATGAAGTACAATAACTTTTTGTTTT [XGTACX_site292]	6.11
TTTATATGTATTAAGTGTACACATATAATCTATCTT [XGTACX_site4922]	6.71
GTCAAATTTTTGTGCACACATATATAGTTATTATTA [CACACA_site2241]	11.7
AAAAAAAAAAAAAAAACACACACATACACCCAAAAA [CACACA_site7910]	6.96
TTACATATGGTTAGTAGTACATATATAAATGTAAAT [XGTACX_site7206]	6.31

Sequence	gcPBM binding intensity (ln)
AAAATACACGCATACACACACACACCCACCCATATA [CACACA_site639]	7.21
TTTATAAAAATATACACACATACAAATATGCATATA [CACACA_site712]	6.92
GAAAAAAGGAAATAAAGAAAAAAAAAAATGAAATAT [XGTACX_negctrl_site318]	6.22
GTGTACATAGGTATAGCACACACAAATGTAGGTATT [CACACA_site9339]	6.52
ATTATAATTATTTTGTTGCACTATTTTTGTAGGCCA [GTGCAC_site9734]	8.6
GAATACACCACGCACACACACTTGAGAAAAAATAAA [CACACA_site7747]	7.44
TCTATAAAGTTCCATACATGCGCCATCATTTATATT [TGCATGCA_site195]	6.98
CTGTTTAAAATATAAACACACATTGTTTGCTTTAGA [CACACA_site1301]	6.4
ATTTTTTTACTGCAACCATATTTTTCCCTTTTATTC [CACACA_negctrl_site1282]	7.25
TGTATATATATATAAAGTACATATAATATATATTTG [XGTACX_site5411]	6.27
AAATAAAATTATAACTGTACGTTGTATGAAATAATG [XGTACX_site5462]	6.69
TTGCCCATTTCATTAACACACAAATGTTTATATTCT [CACACA_site4569]	6.94
AATACCCATTTTAGTACACACTTAAAAAATTATTTT [CACACA_site5611]	6.72
TTAACTCAAGAGTGTACACATATATATATATATATA [CACACA_site4334]	9.45
GTATAATATGAACACACACACACACGCAAAAAAAAA [CACACA_site7036]	6.99
TATATTTTTTAAAAAGCATGCAAAAAATAATGATCA [TGCATGCA_site48]	7.1
ACGTTGAAGAAATACACATGCATATTCTATATATAT [TGCATGCA_site76]	7.27
TCATTTTATTTTTTCACACACACATATATATATATA [CACACA_site3333]	9.31
CTCTTATGCTAGGAAGTGCAATAGTATGGGTACCAC	8.6
TAATATATATAAACATGTACAAATCAAAAACAAAAG [XGTACX_site4076]	7.52
ATTTTAGATGAAAAAGCACACAACATATATATATAT [CACACA_site2295]	8.96
ATTCTTTTTTTTTGGAAATGTATTTTTATGTTTTGT [TGCATGCA_negctrl_site426]	6.56

Sequence	gcPBM binding intensity (ln)
ACAAGAAAATATATTTGTACATATATAATTTTATTT [XGTACX_site548]	6.43
AAAGAAATACAATGATGTACATTTAAAAAAAATTAA [XGTACX_site4324]	6.43
TTTTTAAAAAAGTAAAGTACAAAAAAAAGGAATATC [XGTACX_site588]	7.25
ATTAGTAAGAATCATTGTACATTATAATATGTGGTA [XGTACX_site1341]	6.53
TGCTTCCTTAGGAATGTACACACATATATAATATGT [CACACA_site8048]	6.48
ATATATTTATATTTATGTACATATCTTTATTTACGT [XGTACX_site6800]	6.6
ATATATATATCGATCTGTACATATATTTATAGACAT [XGTACX_site4236]	8.25
ATTTATTTTTATATAACACACAAAGTATAATATAAC [CACACA_site3582]	6.41
TGTAAAACTGAAAAGGGTACATATAAATATATATAT [XGTACX_site69]	8.02
ACTATATATTTAATATGTACACATATTTCTGTCGAT [XGTACX_site6878]	6.86
TTCCTAAGAATAATCAGTACACATAAAAAGAACATA [XGTACX_site7861]	6.63
GCATTATTTACCACAACACACAAATATTTACCAATC [CACACA_site2669]	7.16
TAATTTCATCATATTTGTTCCTTCTCAAAATTTTTT [CACACA_negctrl_site217]	6.44
ATAATTATCATAGGATGTACATATTTATTTTGTATA [XGTACX_site7797]	6.24
ATATGTTAAATTATTCGTACGTAAAAAAAAATGGAT [XGTACX_site3465]	7.09
ACTCAAACCTTTAGAGTGCAAAAAAAAAAAAAAAAA [GTGCAC_site9952]	7.61
TTGTAAAAATTAATACATATATATATATATATATAT [CACACA_negctrl_site6]	9.37
TTAAATAAAAAAATAACACACATATAAATATATATG [CACACA_site3175]	6.25
TTACATATTTTTTAACGTACATAAATATATATGTAT [XGTACX_site8406]	6.15
CTCTTTTTTTGCAAAAGTACAAATGGGGATATATTT [XGTACX_site5813]	8.35
AAAGAAATAAGGTGCACACATATACAGATATATATA [CACACA_site4399]	9.82
ATATATTTGATTTACACACTTACAATGTATATAAAT [CACACA_site2993]	6.88
